This is one part of the list.
T1: UNK ZnF1-6 (called full-length) (human, UniProt Q9C0B0 30-357)
T1 sequence: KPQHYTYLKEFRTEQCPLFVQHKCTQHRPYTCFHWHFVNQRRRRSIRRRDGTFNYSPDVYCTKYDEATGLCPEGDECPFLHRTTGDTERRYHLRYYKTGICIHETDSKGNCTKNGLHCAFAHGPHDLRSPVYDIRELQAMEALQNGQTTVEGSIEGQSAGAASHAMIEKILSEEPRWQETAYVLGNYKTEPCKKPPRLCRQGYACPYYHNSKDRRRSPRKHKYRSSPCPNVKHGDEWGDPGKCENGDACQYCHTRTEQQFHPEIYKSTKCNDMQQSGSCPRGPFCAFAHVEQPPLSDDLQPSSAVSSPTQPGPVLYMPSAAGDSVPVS

B1: chr11:69651696:69651723:+|3pUTR|ENSG00000110092|msi1_unk|total|mutant (ssRNA)
RNA: GGGAGUUCUACAGUCCGACGAUCGAGGAUCCGGUUCCAUCCUUUACGUGUUUAAAAAAAAGCAUAAAAACAUUUUAAAAACACCGAAAAAUUCAGCAAACCAUUUUUAAAGCCGAAGAGGGUUUCCGGCCGAAAAACAUAUUCCAACAGAGGAUUGAGCAUCA
B2: chrX:18604022:18604123:+|CDS|ENSG00000008086|msi1|total|mutant (ssRNA)
RNA: GGGAGUUCUACAGUCCGACGAUCGACGAAGGUCUCCCUGCCAAUGAAAGCUUCCUAAAUGGAAACCUUGCUGGAGCCCGUCUCCGUCCACUGCACACCAAAACCUACCAAGCAAGCAGCCAGCCUGGGUCUACCAGCAAAGAUCAACAGAGGAUUGAGCAUCA
B3: chr16:48080881:48083801:-|three_prime_utr|ENSG00000140798|control|control|control (ssRNA)
RNA: GGGAGUUCUACAGUCCGACGAUCUGAGUUUGACAAGCCUGAAGUCCUUGCAGAGAAGCCAGAUUCUGCAUUUGCGAUGUUACUAGCAGCAGAAGUCAGAUUGUAGAGGUCCUGGCGGCUGAUUCUAGAGGAGGAAGAGGCUCUCAACAGAGGAUUGAGCAUCA
B4: chr10:91630394:91630495:-|CDS|ENSG00000119938|unk|total|mutant (ssRNA)
RNA: GGGAGUUCUACAGUCCGACGAUCCUUGGACCUUAAUGAUAUCUCCUCUGCCUUAAAACACCACGAGGAGAAAAACUUGAUUUCCGAUUUCCCUCAGCCUUCAACCGAUUACUUAAGUUUCCGGAGCCACUUUCAGAAGAACUUCAACAGAGGAUUGAGCAUCA
B5: chr1:52238154:52238269:+|CDS|ENSG00000157077|unk|total|mutant (ssRNA)
RNA: GGGAGUUCUACAGUCCGACGAUCUCUGACCGUCCCGCCAGUGUCUGUUCCCCUUCACAAUUAAAGGAUGACGGAAGUACCGGCCGAGACCCCUCCAUGUCUGCGAUUACAAGUUUAACGGUUGAUUCAGUAAUCUCAUCCCAGCAACAGAGGAUUGAGCAUCA
B6: chr2:205797254:205797461:+|3pUTR|ENSG00000118257|msi1|FALSE|unique (ssRNA)
RNA: GGGAGUUCUACAGUCCGACGAUCUCACCCUCCCAUGAUGCGCAGUGUUCAGAAAGCUGGUAAGUCCUAGGGAUUUCCAGAAGUAGCCUGCAGAAGAAGGUAAGUUUGAAAGCCACUCCAGGGGUCCUGAUGCUGUCAUGCUCACAACAGAGGAUUGAGCAUCA
B7: chr4:110049619:110049852:-|3pUTR|ENSG00000170522|msi1|FALSE|unique (ssRNA)
RNA: GGGAGUUCUACAGUCCGACGAUCUUGUUCAAUGUGACAUAAUAGUAUUAUAAUUGGUUAAGUAGCUUAAUGAUUAGGCAAACUAGAUGAAAAGAUUAGGGGCUUCCACACUGCAUAGAUUACACGCACAUAGCCACGCAUACACAACAGAGGAUUGAGCAUCA
B8: ENSG00000075624:stop:overlap|stop_codon|ENSG00000075624|stop_codon|NA|stop_codon (ssRNA)
RNA: GGGAGUUCUACAGUCCGACGAUCGGAUCAGCAAGCAGGAGUAUGACGAGUCCGGCCCCUCCAUCGUCCACCGCAAAUGCUUCUAGGCGGACUAUGACUUAGAUUUAAAAACUGGAACGGUGAAGGUGACAGCAGUCGGUUGGACAACAGAGGAUUGAGCAUCA
B9: chr2:236324146:236324783:-|three_prime_utr|ENSG00000132321|control|control|control (ssRNA)
RNA: GGGAGUUCUACAGUCCGACGAUCACUCGCCAAAGAAAAGAUUCACCAUUGCCCGCCUGAAGAAGCCCUCAGGGGAAGGAACUUAGCAGUGUGCAGGUGAGCUGAUGCCGCAAACCCGCUAACCACUGCAUGUGCUGUUAUGCCCAACAGAGGAUUGAGCAUCA
B10: chr11:35619468:35619569:+|CDS|ENSG00000179431|unk|total|mutant (ssRNA)
RNA: GGGAGUUCUACAGUCCGACGAUCCCCCCUCCGGGAUGCCGGGGGUGAGCUGGCCAACCUCAGCCAGGCGGAGCUGGUGGACCCCGUACAAUGGACCGACUUAAUCCUUUUCGACUACCUGACGGCCAACUUCGACCGGCUCGUCAACAGAGGAUUGAGCAUCA
B11: chr5:136063637:136063821:+|3pUTR|ENSG00000120708|msi1|FALSE|unique (ssRNA)
RNA: GGGAGUUCUACAGUCCGACGAUCUGUCAAAUGUGUCUCACAUCUACACGUGGCUUGGAGGCUUUUAUGGGGCCCUGUCCAGGUAGAAAAGAAAUGGUAUGUAGAGCUUAGAUUUCCCUAUUGUGACAGAGCCAUGGUGUGUUUCAACAGAGGAUUGAGCAUCA
B12: chr1:965281:965395:+|3pUTR|ENSG00000187961|unk|FALSE|unique (ssRNA)
RNA: GGGAGUUCUACAGUCCGACGAUCCCAUCCGUUCACGUCUCUGCAUCCAUUCCUUCAUGUCUUUAUUUAGUUGUUUAUUUAUUUAGUUAUUUAUCUUAUUUAUUGAGGGGUGAGGAGUGCCACGGCUGCCCGUUUACACCUUUACAACAGAGGAUUGAGCAUCA
B13: chr10:52765379:52768136:-|three_prime_utr|ENSG00000165471|control|control|control (ssRNA)
RNA: GGGAGUUCUACAGUCCGACGAUCUUGUUCCUUUUGUGGGCAAUCACUAAAAAUGAUCACUAACAGCACCAACAAAGCAAUAAUAGUAGUAGUAGUAGUUAGCAGCAGCAGUAGUAGUCAUGCUAAUUAUAUAAUAUUUUUAAUCAACAGAGGAUUGAGCAUCA
B14: chr10:98383567:98383797:-|three_prime_utr|ENSG00000119943|control|control|control (ssRNA)
RNA: GGGAGUUCUACAGUCCGACGAUCCCACCCCUGAAUUCCAAGUGCUCCAUUGGAUCAGCUUCCCAGGAAGUUCAGCUUCGGGUUAGUACAUAAGGCCACCACAAUGCUCAAGAAAUUAUUUUAGAAAAAACGUACGAGUUACAUCAACAGAGGAUUGAGCAUCA
B15: ENSG00000124766:be:win_251|CDS|ENSG00000124766|bound_else_gene|NA|bound_elsewhere_windowed (ssRNA)
RNA: GGGAGUUCUACAGUCCGACGAUCUGCACAACGCCGAGAUCUCCAAGCGGCUGGGCAAACGCUGGAAGCUGCUCAAAGACAGCGACAAGAUCCCUUUCAUUCGAGAGGCGGAGCGGCUGCGCCUCAAGCACAUGGCUGACUACCCAACAGAGGAUUGAGCAUCA
B16: chr10:73916565:73916770:+|3pUTR|ENSG00000122861|msi1|total|mutant (ssRNA)
RNA: GGGAGUUCUACAGUCCGACGAUCCUGGUUGUCAUUUUUGCAGCCGAGUCAUCUCCAUCAGCUGUAAGAAGAGACUGGGAAGACCGGCUCUGCACAGAUGGAUUUGCCUGUGCCACCCACCAGGGCGAACGACAACCGCUUUACCAACAGAGGAUUGAGCAUCA
B17: chr4:75800632:75800752:+|CDS|ENSG00000138768|unk|FALSE|unique (ssRNA)
RNA: GGGAGUUCUACAGUCCGACGAUCAAACAACUGAUUGAGAAGAGGAUUGGCAAAGAGAAUUUCAUAGAGAAACUAGGAUUUAUUAGCAAACAUGAGUUGUAUUCCAGAGCAUCUCAGAAACCCCAGCCAAACUUUCCCAGUCCACAACAGAGGAUUGAGCAUCA
B18: ENSG00000061794:stop:overlap|stop_codon|ENSG00000061794|stop_codon|NA|stop_codon (ssRNA)
RNA: GGGAGUUCUACAGUCCGACGAUCUCUCCACUGCCGUCUACUCGGCCACUCCGGUCCCGACACCUAGCCUGCGCACUACCUCCUAGGACAGAGAAAAUGGCUGUUGACCAGGACUGGCCUAGUGUUUACCCAGUUGCAGCACCACAACAGAGGAUUGAGCAUCA
B19: chr20:4853394:4853498:-|3pUTR|ENSG00000089057|unk|FALSE|unique (ssRNA)
RNA: GGGAGUUCUACAGUCCGACGAUCUAUGACCAUGAGCUAAGUUGUUAUUUCUUUCAUUCAUAUCCCUGCUGAAAUAUUGGUACUAGCAACUUAAAGUUGGCAAGUCUCAUCUUCAGUAAUACGGAUGCCAUGGGAGUGGCCAGGCAACAGAGGAUUGAGCAUCA
B20: chr20:50584425:50584526:+|3pUTR|ENSG00000196396|msi1|FALSE|unique (ssRNA)
RNA: GGGAGUUCUACAGUCCGACGAUCACCUCCUAUCCUUGGAGAGCAGCUGGCUCUCCACCUUGUUACACAUUAUGUUAGAGAGGUAGCGAGCUGCUCUGCUAUAUGCCUUAAGCCAAUAUUUACUCAUCAGGUCAUUAUUUUUUACAACAGAGGAUUGAGCAUCA
B21: chr7:137227872:137228000:-|3pUTR|ENSG00000105894|msi1_unk|FALSE|overlapping (ssRNA)
RNA: GGGAGUUCUACAGUCCGACGAUCGGAACAUAAAAAGGACAUCAGCAAACAGGAUCAGUUAACUAUUGCAUUUAUAUGUACCGUAGGCUUUGUAUUCAAAAAUUAUCUAUAGCUAAGUACACAAUAAGCAAAAACAAAAAGAAACAACAGAGGAUUGAGCAUCA
B22: ENSG00000070961:be:win_4401|3pUTR|ENSG00000070961|bound_else_gene|NA|bound_elsewhere_windowed (ssRNA)
RNA: GGGAGUUCUACAGUCCGACGAUCGUUAUGACAUCUGUCCUAAUUAGUUUCUUAAAUACAUUUACUACUUAAUGGUUUUGAAGCAACUGUUUAAUUUUUAAAAUUUUUGAAAACUUGCUAAUAACCUUUUGUUCAGAAUUUAGUCAACAGAGGAUUGAGCAUCA

biological target: T1, UNK ZnF1-6 (called full-length); assay: nsRBNS (natural sequence RNA bind-n-seq); RBNS binding buffer (assumed for nsRBNS): 25 mM Tris pH 7.5, 150 mM KCl, 3 mM MgCl2, 0.01% Triton X-100, 500 ug/ml BSA, 20 U/ml SUPERase-In, 4 C; UNK is unkempt and MSI1 is Musashi-1; names of the RNAs are library labels; protein concentration not given here; high values mean tight binding

Binder	binding signal [enrichment R]
B1	0.444
B2	0.772
B3	1.15
B4	0.273
B5	0.482
B6	0.598
B7	14.6
B8	1.25
B9	0.482
B10	0.542
B11	0.987
B12	199
B13	16.5
B14	2.25
B15	0.596
B16	0.561
B17	8.68
B18	0.83
B19	0.439
B20	0.916
B21	0.791
B22	5.85

From article PMC12136788
